According to the supplement of paper PMC8728848:
The other results are listed elsewhere or left out.

Legend:
Test in all cases: glycan array binding signal (z-score within array); higher = stronger binding
Settings in all cases: glycan notation: IUPAC condensed, linker removed
[1] = biological target: GalNAc(b1-4)GlcNAc(b1-2)Man
Procedure, shortened: (§1)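 Arrays were curated from the Consortium for Functional Glycomics database, 3228 in total, and kept only where the protein sequence was available. Binding is expressed as a within-array Z-score. This score was averaged across arrays of the same protein sequence at different concentrations or buffers and across linkers, and negative values can be read as non-binding.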

[2] = biological target: GalNAc(b1-4)GlcNAc(b1-2)Man(a1-3)[GalNAc(b1-4)GlcNAc(b1-2)Man(a1-6)]Man(b1-4)GlcNAc(b1-4)GlcNAc
Procedure, shortened: as §1

[3] = biological target: GalNAc(b1-4)GlcNAc(b1-3)GalNAc(b1-4)GlcNAc
Procedure, shortened: as §1

GalNAc(b1-4)GlcNAc6S = biological target: GalNAc(b1-4)GlcNAc6S
Procedure, shortened: as §1

GalNAc(b1-6)GalNAc = biological target: GalNAc(b1-6)GalNAc
Procedure, shortened: as §1

GalNAc3S(b1-4)GlcNAc = biological target: GalNAc3S(b1-4)GlcNAc
Procedure, shortened: as §1

GalNAc3S(b1-4)GlcNAc3S = biological target: GalNAc3S(b1-4)GlcNAc3S
Procedure, shortened: as §1

[4] = biological target: GalNAc3S(b1-4)[Fuc(a1-3)]GlcNAc
Procedure, shortened: as §1

GalNAc4S6S(b1-4)GlcNAc = biological target: GalNAc4S6S(b1-4)GlcNAc
Procedure, shortened: as §1

GalNAc6S(b1-4)GlcNAc = biological target: GalNAc6S(b1-4)GlcNAc
Procedure, shortened: as §1

Glc(a1-4)Glc = biological target: Glc(a1-4)Glc
Procedure, shortened: as §1

[5] = biological target: Glc(a1-4)Glc(a1-4)Glc(a1-4)Glc
Procedure, shortened: as §1

Glc(a1-6)Glc(a1-6)Glc = biological target: Glc(a1-6)Glc(a1-6)Glc
Procedure, shortened: as §1

[6] = biological target: Glc(a1-6)Glc(a1-6)Glc(a1-6)Glc
Procedure, shortened: as §1

Glc(b1-4)Glc = biological target: Glc(b1-4)Glc
Procedure, shortened: as §1

Glc(b1-6)Glc = biological target: Glc(b1-6)Glc
Procedure, shortened: as §1

GlcA(b1-3)Gal = biological target: GlcA(b1-3)Gal
Procedure, shortened: as §1

GlcA(b1-3)GlcNAc = biological target: GlcA(b1-3)GlcNAc
Procedure, shortened: as §1

GlcA(b1-6)Gal = biological target: GlcA(b1-6)Gal
Procedure, shortened: as §1

[7] = biological target: GlcA3S(b1-3)Gal(b1-4)GlcNAc(b1-2)Man
Procedure, shortened: as §1

[8] = biological target: GlcA3S(b1-3)Gal(b1-4)GlcNAc(b1-3)Gal(b1-4)Glc
Procedure, shortened: as §1

[9] = biological target: GlcNAc(a1-3)Gal(b1-4)GlcNAc
Procedure, shortened: as §1

[10] = biological target: GlcNAc(a1-4)Gal(b1-3)GlcNAc
Procedure, shortened: as §1

[11] = biological target: GlcNAc(a1-4)Gal(b1-4)GalNAc
Procedure, shortened: as §1

[12] = biological target: GlcNAc(a1-4)Gal(b1-4)GlcNAc
Procedure, shortened: as §1

[13] = biological target: GlcNAc(a1-4)Gal(b1-4)GlcNAc(b1-3)Gal(b1-4)Glc
Procedure, shortened: as §1

[14] = biological target: GlcNAc(a1-4)Gal(b1-4)GlcNAc(b1-3)Gal(b1-4)GlcNAc
Procedure, shortened: as §1

[15] = biological target: GlcNAc(a1-4)Gal(b1-4)GlcNAc(b1-3)Gal(b1-4)GlcNAc(b1-3)Gal(b1-4)GlcNAc
Procedure, shortened: as §1

[16] = biological target: GlcNAc(a1-4)Gal(b1-4)GlcNAc(b1-3)Gal(b1-4)[Fuc(a1-3)]GlcNAc(b1-3)Gal(b1-4)[Fuc(a1-3)]GlcNAc
Procedure, shortened: as §1

[17] = biological target: GlcNAc(a1-6)Gal(b1-4)GlcNAc
Procedure, shortened: as §1

[18] = biological target: GlcNAc(b1-2)Gal(b1-3)GalNAc
Procedure, shortened: as §1

[19] = biological target: GlcNAc(b1-2)Man(a1-3)[GlcNAc(b1-2)Man(a1-6)]Man(b1-4)GlcNAc(b1-4)GlcNAc
Procedure, shortened: as §1

[20] = biological target: GlcNAc(b1-2)Man(a1-3)[GlcNAc(b1-2)Man(a1-6)]Man(b1-4)GlcNAc(b1-4)[Fuc(a1-6)]GlcNAc
Procedure, shortened: as §1

[21] = biological target: GlcNAc(b1-2)Man(a1-3)[GlcNAc(b1-4)][GlcNAc(b1-2)Man(a1-6)]Man(b1-4)GlcNAc(b1-4)GlcNAc
Procedure, shortened: as §1

[22] = biological target: GlcNAc(b1-2)Man(a1-3)[GlcNAc(b1-4)][GlcNAc(b1-2)Man(a1-6)]Man(b1-4)GlcNAc(b1-4)[Fuc(a1-6)]GlcNAc
Procedure, shortened: as §1

[23] = biological target: GlcNAc(b1-2)[GlcNAc(b1-4)]Man(a1-3)[GlcNAc(b1-2)Man(a1-6)]Man(b1-4)GlcNAc(b1-4)GlcNAc
Procedure, shortened: as §1

[24] = biological target: GlcNAc(b1-2)[GlcNAc(b1-4)]Man(a1-3)[GlcNAc(b1-4)][GlcNAc(b1-2)Man(a1-6)]Man(b1-4)GlcNAc(b1-4)GlcNAc
Procedure, shortened: as §1

B1: Cohesin-mDC-ASGPR (Macaca mulatta) (protein)
chain: LDITSHHHHHHDDLDAVRIKVDTVNAKPGDTVRIPVRFSGIPSKGIANCDFVYSYDPNVLEIIEIEPGDIIVDPNPDKSFDTAVYPDRKIIVFLFAEDSGTGAYAITKDGVFATIVAKVKEGAPNGLSVIKFVEVGGFANNDLVEQKTQFFDGGVNVGDTTEPATPTTPVTTPTTTDDLDAASSQNSKFQRDLVTLRTDFSNFTSNTVAEIQALTSQGSSVEEMIASLKAEVEVIKQEQQAVHSEMLLRVQRLMQDLNKLTCQVATLKNNASTERTCCPVNWVEHQDSCYWFSRSGMPWAEAEKHCQLENAHLVVINSREEQNFVQEHLSFAYTWMGLSDREGAWKWVDGTDYETGFQNWKPGQPDDWQGHGLGGGEDCAHFHPDGRWNDDVCQRPYYWVCEAGLTQASQESH
glycan array binding signal (z-score) [1]: 2.58 | glycan array binding signal (z-score) [2]: 2.93 | glycan array binding signal (z-score) [3]: 3.21 | glycan array binding signal (z-score) (GalNAc(b1-4)GlcNAc6S): 0.884 | glycan array binding signal (z-score) (GalNAc(b1-6)GalNAc): -0.42 | glycan array binding signal (z-score) (GalNAc3S(b1-4)GlcNAc): -0.387 | glycan array binding signal (z-score) (GalNAc3S(b1-4)GlcNAc3S): -0.428 | glycan array binding signal (z-score) [4]: -0.416 | glycan array binding signal (z-score) (GalNAc4S6S(b1-4)GlcNAc): -0.416 | glycan array binding signal (z-score) (GalNAc6S(b1-4)GlcNAc): 3.82 | glycan array binding signal (z-score) (Glc(a1-4)Glc): -0.406 | glycan array binding signal (z-score) [5]: -0.409 | glycan array binding signal (z-score) (Glc(a1-6)Glc(a1-6)Glc): -0.394 | glycan array binding signal (z-score) [6]: -0.405 | glycan array binding signal (z-score) (Glc(b1-4)Glc): -0.397 | glycan array binding signal (z-score) (Glc(b1-6)Glc): -0.376 | glycan array binding signal (z-score) (GlcA(b1-3)Gal): -0.43 | glycan array binding signal (z-score) (GlcA(b1-3)GlcNAc): -0.402 | glycan array binding signal (z-score) (GlcA(b1-6)Gal): -0.419 | glycan array binding signal (z-score) [7]: -0.429 | glycan array binding signal (z-score) [8]: -0.405 | glycan array binding signal (z-score) [9]: -0.4 | glycan array binding signal (z-score) [10]: -0.38 | glycan array binding signal (z-score) [11]: -0.403 | glycan array binding signal (z-score) [12]: -0.423 | glycan array binding signal (z-score) [13]: -0.43 | glycan array binding signal (z-score) [14]: -0.428 | glycan array binding signal (z-score) [15]: -0.419 | glycan array binding signal (z-score) [16]: -0.334 | glycan array binding signal (z-score) [17]: -0.371 | glycan array binding signal (z-score) [18]: -0.382 | glycan array binding signal (z-score) [19]: -0.414 | glycan array binding signal (z-score) [20]: -0.401 | glycan array binding signal (z-score) [21]: -0.417 | glycan array binding signal (z-score) [22]: -0.415 | glycan array binding signal (z-score) [23]: -0.422 | glycan array binding signal (z-score) [24]: -0.413
